Measurements reported in the supplement of paper PMC6746778.
The other results are listed elsewhere or left out. Single values are uncertain, as repeats are few or missing.

Assays:
Assay in all cases: proliferation Z-score within cell line (SRB, relative to all inhibitors screened on that line); triple-negative breast cancer lines and a kinase inhibitor library; SRB is the sulforhodamine B protein stain; higher = less growth inhibition (more resistant)
Settings in all cases: concentration: 1 µM; 4 days
Bt20 = test system: Bt20
Bt549 = test system: Bt549
HCC1143 = test system: HCC1143
HCC1806 = test system: HCC1806
HCC1937 = test system: HCC1937
HCC38 = test system: HCC38
HCC70 = test system: HCC70
Hs578T = test system: Hs578T
MDA-MB-231 = test system: MDA-MB-231
MDA-MB-435s = test system: MDA-MB-435s
MDA-MB-436 = test system: MDA-MB-436
MDA-MB-453 = test system: MDA-MB-453
MDA-MB-468 = test system: MDA-MB-468
SKBR7 = test system: SKBR7
SUM1315MO2 = test system: SUM1315MO2
SUM149PT = test system: SUM149PT
SUM159PT = test system: SUM159PT
SUM185PE = test system: SUM185PE
SUM229PE = test system: SUM229PE
SUM52PE = test system: SUM52PE
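Also: Single-dose primary screen of a 378-member kinase inhibitor library in 96-well plates, with growth read as absorbance of protein-bound SRB dye after TCA fixation.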

Compound | proliferation Z-score within cell line (Bt20) | proliferation Z-score within cell line (Bt549) | proliferation Z-score within cell line (HCC1143) | proliferation Z-score within cell line (HCC1806) | proliferation Z-score within cell line (HCC1937) | proliferation Z-score within cell line (HCC38) | proliferation Z-score within cell line (HCC70) | proliferation Z-score within cell line (Hs578T) | proliferation Z-score within cell line (MDA-MB-231) | proliferation Z-score within cell line (MDA-MB-435s) | proliferation Z-score within cell line (MDA-MB-436) | proliferation Z-score within cell line (MDA-MB-453) | proliferation Z-score within cell line (MDA-MB-468) | proliferation Z-score within cell line (SKBR7) | proliferation Z-score within cell line (SUM1315MO2) | proliferation Z-score within cell line (SUM149PT) | proliferation Z-score within cell line (SUM159PT) | proliferation Z-score within cell line (SUM185PE) | proliferation Z-score within cell line (SUM229PE) | proliferation Z-score within cell line (SUM52PE)
C[C@@H](N)[C@H]1CC[C@H](C(=O)Nc2ccncc2)CC1 | 0.973 | 0.618 | 0.675 | 0.549 | 0.86 | 0.503 | 0.786 | 0.619 | 0.913 | 0.997 | 0.928 | 0.911 | 0.913 | 0.913 | 1.22 | 0.742 | 0.357 | 1.26 | 1.28 | 1.56
O=C1NC(=O)/C(=C/c2ccc3c(c2)OC(F)(F)O3)S1 | 0.763 | 0.827 | 0.811 | 0.929 | 0.737 | 0.597 | 0.763 | 0.723 | 0.881 | 0.917 | 0.747 | 1.06 | 1.15 | 0.961 | 1.27 | 1.05 | 0.641 | 1.31 | 0.78 | 1.26
CN1CCN(c2cccc(Nc3nc4c(-c5ccc(S(C)(=O)=O)cc5)cccn4n3)c2)CC1 | 0.801 | 0.797 | 0.706 | 0.822 | 0.685 | 0.634 | 0.865 | 0.814 | 0.619 | 0.437 | 0.811 | 1.03 | 0.534 | 0.554 | 0.23 | 0.223 | 0.768 | 0.474 | 0.683 | 1.05
Cn1cc(C2=C(c3ccc(Cl)cc3Cl)C(=O)NC2=O)c2ccccc21 | 0.645 | 0.673 | 0.509 | 0.271 | 0.539 | 0.315 | 0.489 | 0.595 | 0.978 | 0.546 | 0.288 | 0.58 | 0.986 | 0.41 | 1.56 | 0.883 | 0.394 | 1.71 | 0.898 | 1.14
N#Cc1c(Oc2ccc(F)c(NC(=O)Cc3cccc(C(F)(F)F)c3)c2)ccc2nc(NC(=O)C3CC3)sc12 | 0.626 | 0.584 | 0.65 | 0.969 | 0.146 | 0.469 | 0.488 | 0.337 | -1.54 | -2.18 | -0.29 | 0.504 | -0.397 | 0.274 | -0.178 | -0.296 | 0.277 | -0.835 | -0.785 | -1.31
CN1CCN(C2CCN(C(=O)Nc3cc(Oc4ccc(NC(=O)C5(C(=O)Nc6ccc(F)cc6)CC5)c(F)c4)ccn3)CC2)CC1 [Golvatinib (E7050)] | 1.08 | 0.978 | 1.09 | 1.67 | 0.874 | 0.698 | 0.887 | 0.674 | 0.871 | 0.626 | 0.529 | 1.02 | 1.25 | 0.837 | 0.734 | 0.983 | 0.683 | 0.258 | 1.5 | -1.01
